Among all 16,000 compounds or so, about 120 (0.75%) were called active. Inconclusive results (about 4%) are left out. The call rests on the fitted dose curve; in most records, active means well fitted inhibition curve with a large enough effect; inconclusive means small, poorly fitted or top-dose-only effect; inactive means no such curve, though single readings can be large or run the other way. Some of the results follow.
molecular target: Rap guanine nucleotide exchange factor 3 (Homo sapiens) (UniProt O95398); experiment: Validation qHTS for antagonist of cAMP-regulated guanine nucleotide exchange factor 3 (EPAC1); conditions: EPAC1 Rap1B-BODIPY-GDP exchange, fluorescence; series mostly up to 150 µM; activity change, negative = inhibition: at the top concentration;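 further: plate controls were DMSO for no effect and ATA control for full effect; nearly all actives have a fitted effect of over 75% in size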
Chain of UniProt O95398 (O95398 whole entry, looked up): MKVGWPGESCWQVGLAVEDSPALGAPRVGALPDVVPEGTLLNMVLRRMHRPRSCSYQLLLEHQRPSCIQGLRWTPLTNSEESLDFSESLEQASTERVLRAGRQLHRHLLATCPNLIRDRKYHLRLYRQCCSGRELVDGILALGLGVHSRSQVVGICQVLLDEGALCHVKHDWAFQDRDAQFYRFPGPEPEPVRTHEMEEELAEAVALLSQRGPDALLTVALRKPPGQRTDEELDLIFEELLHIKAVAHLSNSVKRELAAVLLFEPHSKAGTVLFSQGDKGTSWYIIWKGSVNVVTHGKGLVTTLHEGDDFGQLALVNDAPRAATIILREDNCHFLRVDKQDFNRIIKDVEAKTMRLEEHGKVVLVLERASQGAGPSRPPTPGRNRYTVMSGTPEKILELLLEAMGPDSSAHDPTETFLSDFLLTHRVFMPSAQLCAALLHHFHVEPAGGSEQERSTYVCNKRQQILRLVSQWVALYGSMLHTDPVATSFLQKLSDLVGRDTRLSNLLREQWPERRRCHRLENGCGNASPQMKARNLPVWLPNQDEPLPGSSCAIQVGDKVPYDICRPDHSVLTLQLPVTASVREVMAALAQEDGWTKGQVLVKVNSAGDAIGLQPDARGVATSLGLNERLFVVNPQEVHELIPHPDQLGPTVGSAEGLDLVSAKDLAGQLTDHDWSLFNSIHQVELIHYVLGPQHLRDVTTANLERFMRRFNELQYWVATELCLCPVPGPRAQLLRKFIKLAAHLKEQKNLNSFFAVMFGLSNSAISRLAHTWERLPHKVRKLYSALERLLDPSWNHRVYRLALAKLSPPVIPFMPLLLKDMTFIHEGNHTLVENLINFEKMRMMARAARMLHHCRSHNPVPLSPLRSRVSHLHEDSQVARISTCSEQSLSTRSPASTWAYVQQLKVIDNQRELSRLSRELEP
In short: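 Nucleotide exchange followed as fluorescence loss when BODIPY-GDP leaves Rap1B (480 nm excitation, 540 nm emission), read at 5 min intervals over 30 min. Reaction: 100 nM EPAC1, 250 nM RAP1B-BODIPY-GDP, 50 uM GDP; ATA and DMSO define normalization.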

Activity change, negative = inhibition, inactive:
C[C@@H]1[C@H](O)[C@@H](C)/C=C/C=C\C=C\C=C\C=C\C=C\C=C\[C@H](O[C@@H]2O[C@H](C)[C@@H](O)[C@H](N)[C@@H]2O)C[C@@H]2O[C@](O)(C[C@@H](O)C[C@@H](O)[C@H](O)CC[C@@H](O)C[C@@H](O)CC(=O)O[C@H]1C)C[C@H](O)[C@H]2C(=O)O (stereo in doubt) 40.2%
Cc1ncnc2nc[nH]c12 14.6%
Nc1ccccc1N 47% [at 320 µM]
COc1ccccc1-c1cc(=O)c2cccc(OC)c2o1 21%
COCC1CCCN(Cc2ccc3c(c2)CN(C(=O)c2sc(C)nc2C)CCO3)C1 (stereo not drawn) 5.65%
COc1ccc(CCN(C)C(=O)c2cnn(-c3nccc(-c4ccc(C)o4)n3)c2C)cc1OC -0.877%
COC(=O)CC1C(=O)NCCN1C(=O)CN1Cc2ccccc2OC(c2ccccc2)C1 (stereo not drawn) 4.19%
N[C@](CC1c2ccccc2Oc2ccccc21)(C(=O)O)[C@@H]1C[C@@H]1C(=O)O 0.27%
CCCCC1C(=O)N(c2ccccc2)N(c2ccccc2)C1=O
O=c1c(-c2cccs2)nc2cnc(N3CCOCC3)nc2n1CCc1ccccc1 8.83%
Nc1ncnc2c1c(I)cn2C1OC(CO)C(O)C1O (stereo not drawn)
Cc1cc(-c2cc(F)cc3c2OC(CNC(=O)[C@@H]2CCC(=O)N2)C3)ccc1F (stereo partly drawn) 8.96%
O=C(c1ccc(N2CCC(NCCCn3ncc4ccccc43)CC2)cc1)N1CCOCC1 11.5%
O=C(O)/C=C/C=C/c1ccccc1 12.6%
NC(C(=O)NC1C(=O)N2C(C(=O)O)=C(Cl)CSC12)c1ccccc1 (stereo not drawn) 6.94%
O=C(CO)[C@@H](O)[C@H](O)[C@@H](O)CO 10.1%
CC(=O)Oc1cc(C)c(OC(C)=O)c2ccccc12 7.02%
O=C(OCc1ccccc1)c1cccnc1 -20.5%
COc1ccc(-c2nc3cnc(N4CCN(C)CC4)nc3n(CCc3ccccc3)c2=O)cc1 18.8%
Cc1nc2cnc(Oc3ccccc3)nc2n(C)c1=O -0.535%
N=C(N)SCCN
CN(C)c1ccc2ccc3cccc4ccc1c2c34 -2.92%
CC(=O)N[C@H]1[C@H]([C@H](O)[C@H](O)CO)OC(C(=O)O)=C[C@@H]1N=C(N)N 19.3%
CCOc1ccc(N=Nc2ccc(N)cc2N)cc1 -11.5%
O=C1CC[C@@]23/C=C/C(=O)NCCCCNCCCNC(=O)/C=C/c4ccc(c2c4)OC3C1 (stereo partly drawn) 16.8%
COc1ccccc1CCn1c(=O)c(-c2cccc(F)c2)nc2cncnc21 8.36%
CC[N+](CC)(CCNC(=O)C(=O)NCC[N+](CC)(CC)Cc1ccccc1Cl)Cc1ccccc1Cl
CN(C)c1ncc2nc(-c3cccs3)c(=O)n(C)c2n1 24.5%

— PubChem BioAssay AID1645882 (National Center for Advancing Translational Sciences (NCATS), 2021)
